In patent publication US20230278972A1, “SUBSTITUTED HALOALKYL SULFONANILIDE HERBICIDES” (FMC Corporation, priority 2020, published 2023):

Test system: sedge, umbrella (small-flower umbrella sedge, Cyperus difformis)
Assay: Test B1 flooded paddy test, sedge, umbrella
Assay type: in vivo
Conditions: 250 g ai/ha, Flood, applied to paddy water, 2-leaf stage, visually evaluated after 10 to 14 days
Excerpt: A dash (-) response means no test result.

Compound | Plant response rating, Sedge, Umbrella (0 to 100 scale, 0 is no effect, 100 is complete control)
Cc1c(NS(=O)(=O)C(F)(F)F)cc(C(=O)N2CCOCC2)c(C)c1C [Compound 289, 1,1,1-Trifluoro-N-[2,3,4-trimethyl-5-(4-morpholinylcarbonyl)phenyl]methanesulfonamide] | 90
Cc1cc(C)c(N(COC(=O)C(C)(C)C)S(=O)(=O)C(F)(F)F)cc1C(=O)N1CCC(c2ccccc2)CC1 [Compound 364] | 0
Cc1c(C2=NOC3(CCCC3)C2)cc(N(COC(=O)C(C)(C)C)S(=O)(=O)C(F)(F)F)c(C)c1C [Compound 382] | 90
Cc1c(NS(=O)(=O)C(F)(F)F)cc(C2=NOC3CCCC23)c(C)c1C (stereo not shown) [Compound 335] | 90
Cc1cc(Br)c(NS(=O)(=O)C(F)(F)F)cc1C1=NOC2(CCCC2)C1 [Compound 309] | 75
Cc1c(NS(=O)(=O)C(F)(F)F)cc(C(=O)N(C)C)c(C)c1Cl [Compound 287] | 90
C#CCN(C)C(=O)c1cc(NS(=O)(=O)C(F)(F)F)c(C)c(C)c1C [Compound 368] | 98
Cc1cc(C)c(N(COC(=O)N(C)C)S(=O)(=O)C(F)(F)F)cc1C1=NOC2CCCC12 (stereo not shown) [Compound 317] | 0
CCOC(=O)N(c1cc(C2=NOC3CCCC23)c(CC)cc1C)S(=O)(=O)C(F)(F)F (stereo not shown) [Compound 379] | 80
Cc1cc(C)c(N(COC(=O)OC(C)C)S(=O)(=O)C(F)(F)F)cc1C1=NOC2CCCC12 (stereo not shown) [Compound 314] | 90
Cc1c(C(=O)N2CCCCC2)cc(NS(=O)(=O)C(F)(F)F)c(Cl)c1F [Compound 333] | 90
Cc1c(NS(=O)(=O)C(F)(F)F)cc(C(=O)N2CCC(Cl)CC2)c(C)c1C [Compound 356] | 85
COc1cc(C)c(C2=NOC3(CCCC3)C2)cc1NS(=O)(=O)C(F)(F)F [Compound 304] | 0
Cc1cc(C)c(C2=NOC(OCC(C)C)C2)cc1NS(=O)(=O)C(F)(F)F (stereo not shown) [Compound 322] | 0
Cc1c(NS(=O)(=O)C(F)(F)F)cc(C2=NOC3(CCCC3)C2)c(C)c1C [Compound 380] | 90
Cc1cc(C)c(N(COC(=O)C(C)(C)C)S(=O)(=O)C(F)(F)F)cc1C1=NOC2OCCC12 (stereo not shown) [Compound 352] | 70

Compound | Plant response rating, Sedge, Umbrella (0 to 100 scale, 0 is no effect, 100 is complete control)
Cc1cc(C)c(C2=NOC3OCCC23)cc1NS(=O)(=O)C(F)(F)F (stereo not shown) [Compound 349] | 80
Cc1c(C(=O)N2CCSCC2)cc(N(COC(=O)C(C)(C)C)S(=O)(=O)C(F)(F)F)c(C)c1C [Compound 285] | 75
Cc1cc(C)c(N(COC(=O)C(C)(C)C)S(=O)(=O)C(F)(F)F)cc1C1=NOC(C(C)C)C1 (stereo not shown) [Compound 383] | 75
Cc1cc(C)c(N(COC(=O)C(C)(C)C)S(=O)(=O)C(F)(F)F)cc1C1=NOC2COCC12 (stereo not shown) [Compound 301] | 95
Cc1cc(C2CC2)c(C2=NOC3CCCC23)cc1NS(=O)(=O)C(F)(F)F (stereo not shown) [Compound 307] | 98
CCc1cc(C)c(N(COC(=O)C(C)(C)C)S(=O)(=O)C(F)(F)F)cc1C1=NOC2CCCC12 (stereo not shown) [Compound 378] | 80
Cc1c(C2=NO[C@@H]3CCC[C@H]23)cc(N(COC(=O)C(C)(C)C)S(=O)(=O)C(F)(F)F)c(C)c1C [Compound 336, [[(Trifluoromethyl)sulfonyl][2,3,4-trimethyl-5-[(3aR,6aR)-3a,5,6,6a-tetrahydro-4H-cyclopent[d]isoxazol-3-yl]phenyl]amino]methyl 2,2-dimethylpropanoate] | 95
Cc1c(C(=O)N(C)C)cc(NS(=O)(=O)C(F)(F)F)c(Cl)c1F [Compound 320] | 90
CCC1CC(c2cc(NS(=O)(=O)C(F)(F)F)c(C)cc2C)=NO1 (stereo not shown) [Compound 375] | 70
CCC1ON=C(c2cc(N(C(=O)OCC(C)C)S(=O)(=O)C(F)(F)F)c(C)cc2C)C1CC (stereo not shown) [Compound 348] | 95
COc1cnn(-c2cc(NS(=O)(=O)C(F)(F)F)c(C)cc2C)c(=O)c1OC [Compound 282] | 0
Cc1c(NS(=O)(=O)C(F)(F)F)cc(C(=O)N(C)C)c(C)c1C [Compound 288] | 95
Cc1c(C(=O)N2C[C@@H](C)O[C@H](C)C2)cc(N(COC(=O)C(C)(C)C)S(=O)(=O)C(F)(F)F)c(C)c1C (relative stereo) [Compound 373] | 95
Cc1cc(C)c(N(S(=O)(=O)C(F)(F)F)S(=O)(=O)C(F)(F)F)cc1N1CCC2(CCC(C(F)(F)F)CC2)C1=O (stereo not shown) [Compound 399] | 85
Cc1cc(C)c(C2=NOC3CCCCCC23)cc1NS(=O)(=O)C(F)(F)F (stereo not shown) [Compound 292] | 90
